These results are taken from PMC6900184, “The Escherichia coli MarA protein regulates the ycgZ‐ymgABC operon to inhibit biofilm formation”.

Protein sequences, listed by entry. Tags and fused reporters are not part of them.
UniProt P75993: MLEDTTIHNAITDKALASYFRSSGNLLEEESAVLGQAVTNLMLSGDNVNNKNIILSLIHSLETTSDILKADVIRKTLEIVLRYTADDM

For assay [1], the target named is T1, His6-RcsB (Escherichia coli) (UniProt P0DMC7).
T1 sequence: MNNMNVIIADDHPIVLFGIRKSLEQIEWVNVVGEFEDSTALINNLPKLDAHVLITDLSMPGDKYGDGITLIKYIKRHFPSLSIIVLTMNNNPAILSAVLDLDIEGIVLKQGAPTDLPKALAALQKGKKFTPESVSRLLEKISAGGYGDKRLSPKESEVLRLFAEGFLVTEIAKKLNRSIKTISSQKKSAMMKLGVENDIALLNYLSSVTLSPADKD
The experiment in a line: pull-down; in vivo coelution; His6-tagged bait co-expressed in E. coli MC4100 with the prey, lysate in 50 mM NaH2PO4, 150 mM NaCl, 20 mM imidazole, pH 8, Ni-NTA agarose, elution with 250 mM imidazole; prey detected by immunoblot (anti-FLAG or anti-Strep-Tactin antibody).

The target of another assay is T2, YcgZ (Escherichia coli) (UniProt P75991).
T2 sequence: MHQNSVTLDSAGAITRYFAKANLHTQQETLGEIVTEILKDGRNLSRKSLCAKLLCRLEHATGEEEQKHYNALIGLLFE
Briefly: two-hybrid; BacterioMatch II bacterial two-hybrid; fusions to lambda cI (pBT) and to RNAP alpha-NTD (pTRG) in a histidine auxotrophic E. coli XL1-Blue MRF' derivative; growth on selective medium with 3-AT, 24 h at 37°C and a further 48 h at 28°C; five independent cotransformants patched.

The target in another assay is T3, YmgA (Escherichia coli) (UniProt P75992).
T3 sequence: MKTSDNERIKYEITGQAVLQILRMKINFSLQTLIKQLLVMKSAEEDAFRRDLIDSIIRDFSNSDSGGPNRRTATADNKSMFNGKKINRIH
The assay is described as above.

The target in assay [2] is T4, His6-YmgA (Escherichia coli) (UniProt P75992).
T4 sequence: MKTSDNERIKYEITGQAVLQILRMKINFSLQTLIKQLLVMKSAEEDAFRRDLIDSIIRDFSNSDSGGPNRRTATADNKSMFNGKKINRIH
Briefly: pull-down; in vivo coelution; His6-tagged bait co-expressed in E. coli MC4100 with the prey, lysate in 50 mM NaH2PO4, 150 mM NaCl, 20 mM imidazole, pH 8, Ni-NTA agarose, elution with 250 mM imidazole; prey detected by immunoblot (anti-FLAG or anti-Strep-Tactin antibody). (In general: Immunoblotting shows a protein as a band on a membrane.)

Assay [3] addresses YmgB-Strep (Escherichia coli) (UniProt P75993). The experiment in a line: pull-down; in vivo coelution; YmgB-Strep expressed in E. coli MC4100 ymgA::Flag, lysate in 100 mM Tris-HCl pH 8, 150 mM NaCl, 1 mM EDTA, Strep-Tactin Sepharose, elution with buffer E; prey detected by anti-FLAG immunoblot.
The next assay has as its target T5, YmgC (Escherichia coli) (UniProt P75994).
T5 sequence: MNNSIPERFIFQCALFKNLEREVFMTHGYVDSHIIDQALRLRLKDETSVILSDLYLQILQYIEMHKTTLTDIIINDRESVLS
The experiment in a line: two-hybrid; BacterioMatch II bacterial two-hybrid; fusions to lambda cI (pBT) and to RNAP alpha-NTD (pTRG) in a histidine auxotrophic E. coli XL1-Blue MRF' derivative; growth on selective medium with 3-AT, 24 h at 37°C and a further 48 h at 28°C; five independent cotransformants patched.

A further assay addresses YmgB (Escherichia coli) (UniProt P75993). The description is as above.

No constants are given. Whether binding was seen depends on the method and setting. For some assays here: Binding seen in cells or lysates may run through a third protein. Some binding calls cover weakened binding; strength is not graded here. For some assays here: Sequences can lack the tags named with a protein.

In the case of YmgB-Strep (from UniProt P75993 1-88), the binding result in assay [1] is recorded as “no binding”.

With YmgB (from UniProt P75993 1-88), the binding result with YcgZ (Escherichia coli) and in the assay with YmgA (Escherichia coli) was “binds” each time.

B1: YcgZ-Flag (protein, UniProt P75991 1-78)
chain: MHQNSVTLDSAGAITRYFAKANLHTQQETLGEIVTEILKDGRNLSRKSLCAKLLCRLEHATGEEEQKHYNALIGLLFE
B1: the binding result in assay [2] is listed as “binds”.

B2: YmgA (protein, UniProt P75992 1-90)
chain: MKTSDNERIKYEITGQAVLQILRMKINFSLQTLIKQLLVMKSAEEDAFRRDLIDSIIRDFSNSDSGGPNRRTATADNKSMFNGKKINRIH
Regarding B2, in the assay with YcgZ (Escherichia coli), the binding entry is “binds”.

B3: YmgA-FLAG (protein, UniProt P75992 1-90)
chain: MKTSDNERIKYEITGQAVLQILRMKINFSLQTLIKQLLVMKSAEEDAFRRDLIDSIIRDFSNSDSGGPNRRTATADNKSMFNGKKINRIH
Regarding B3, the binding entry in assay [3] is given as “binds”.

B4: RcsC histidine kinase domain (domain or fragment, UniProt P0DMC5 476-692)
chain: TVSHELRTPLYGIIGNLDLLQTKELPKGVDRLVTAMNNSSSLLLKIISDILDFSKIESEQLKIEPREFSPREVMNHITANYLPLVVRKQLGLYCFIEPDVPVALNGDPMRLQQVISNLLSNAIKFTDTGCIVLHVRADGDYLSIRVRDTGVGIPAKEVVRLFDPFFQVGTGVQRNFQGTGLGLAICEKLISMMDGDISVDSEPGMGSQFTVRIPLYG
On to B4, for which the binding result with YmgC (Escherichia coli) and in the assay with YmgB (Escherichia coli) was “binds” each time.
